Sequences and labels used below:
B1: TPR 5TU (parent)
chain: GGAUCUUCUCGAUCUAACAAAAAAGACAAAUCUGCCACAAAGCUUGAGAGCAUCUUCGGAUGCAGAGGCGGCAGCCUUCGGUGGCGCGAUAGCGCCAACGUUCUCAACUAUGACACGCAAAACGCGUGCUCCGUUGAAUGGAGUUUAUCAUG

Variants at the floor of the assay are shown more often than the library holds them.

Variants of B1 are the subject of this data set. The experiment in a line: polymerase ribozyme fitness, log enrichment relative to wild type (log ratio); higher = more active; in vitro selection for triplet polymerase activity. An outline of the steps:
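Fitness measures genotype enrichment against wild-type enrichment on a logarithmic scale, with inverse-variance-weighted averaging of replicates. The logarithm is base 2, and genotypes were kept only with ≥10 input reads and ≥1 read per output in Illumina sequencing. The sequenced libraries came from one triplicate in vitro selection round, including frozen incubation at −7 °C, of PCR-built, transcribed mutant libraries of each subunit of a heterodimeric triplet polymerase ribozyme.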
As for A21C A66U A73C G86C C87A C96A C123G U148C, the “polymerase ribozyme fitness (log ratio)” value is at most -4.2.

For the variant A23C A64C A73U G124U, the “polymerase ribozyme fitness (log ratio)” value was at most -4.2. The result for A20U A49C G58C C87G reads at most -4.2. For A21U A22G U53A U56A G71C C99U C125G G152A, the “polymerase ribozyme fitness (log ratio)” value is at most -4.2.

Take A22U C35U G92C A107U A115G: the “polymerase ribozyme fitness (log ratio)” value was at most -4.2. A21U A26G G81A: the “polymerase ribozyme fitness (log ratio)” value was at most -4.2. For A22U G59A G74C G83U G84A, the “polymerase ribozyme fitness (log ratio)” value is at most -4.2. A22C G34U C85G C99U A106G G128C U130C A138C: the “polymerase ribozyme fitness (log ratio)” value is at most -4.2. The result for A22U C43U G59U G68A reads at most -4.2. As to A22U A37G A47C U55C G58U C69U C76G G86U A91G G100U, the “polymerase ribozyme fitness (log ratio)” value is at most -4.2. For the variant A23G A52U U56A C57G C79A G86U, the “polymerase ribozyme fitness (log ratio)” value is at most -4.2. Turning to A21C C69A C87G A98U, the “polymerase ribozyme fitness (log ratio)” value is at most -4.2. A22U U56A G67A C96U A150U: the “polymerase ribozyme fitness (log ratio)” value is at most -4.2.

For the variant A22U C43A G59U G70A C93A, the “polymerase ribozyme fitness (log ratio)” value is at most -4.2. A22G U78A A137U: the “polymerase ribozyme fitness (log ratio)” value was at most -4.2.

For A23G C43U A47G A64C G74A C85A A138C G152A, the “polymerase ribozyme fitness (log ratio)” value was at most -4.2. The result for A23C A52G G71U C85U A106C reads at most -4.2; that for A21G A23C U61A C96A G117U G143C, at most -4.2. In the case of A21U A28C G58A C87G C103A A119C, the “polymerase ribozyme fitness (log ratio)” value was at most -4.2. Turning to A21C G48C C51U U61G C95A U111G, the “polymerase ribozyme fitness (log ratio)” value is at most -4.2.

As for A23C G46C G84A, the “polymerase ribozyme fitness (log ratio)” value was at most -4.2.

With A23C U55A C69U G136A, the “polymerase ribozyme fitness (log ratio)” value is at most -4.2. Consider A20U G84A C108U G117A, for which the “polymerase ribozyme fitness (log ratio)” value is at most -4.2. Turning to A23U A52U C76G G83C U104G, the “polymerase ribozyme fitness (log ratio)” value is at most -4.2. For the variant A22C A28C C35U G94C U135C, the “polymerase ribozyme fitness (log ratio)” value is at most -4.2.

Take A21G A37G U45C C57G A60U C76A C132G G141C G152U: the “polymerase ribozyme fitness (log ratio)” value was at most -4.2. The result for A22U C72A G88U A110C U145A reads at most -4.2. Regarding A20U A66C, the “polymerase ribozyme fitness (log ratio)” value is at most -4.2.

A20U C38A C43G C93G G140A U145C: the “polymerase ribozyme fitness (log ratio)” value is at most -4.2.

A21C A30U C72U G88U G141C U146C: the “polymerase ribozyme fitness (log ratio)” value was at most -4.2. With A22U A66C G84A C116G C149U, the “polymerase ribozyme fitness (log ratio)” value was at most -4.2.

As to A22U G50U G81C A91U C116U, the “polymerase ribozyme fitness (log ratio)” value is at most -4.2. Take A22U A28U A30U A47C C57U A150G: the “polymerase ribozyme fitness (log ratio)” value is at most -4.2. Consider A21U A30C G84C C108A G140U, for which the “polymerase ribozyme fitness (log ratio)” value was at most -4.2.

For A21G C35A A52C G58C C95U, the “polymerase ribozyme fitness (log ratio)” value was at most -4.2. For A20U A40G U44A C87A C114U C129G G152U the value was at most -4.2; for A23C C85U A98C C123A, at most -4.2. In the case of A21U A22U G50A U55G G65U A113C U134A, the “polymerase ribozyme fitness (log ratio)” value was at most -4.2. For A20U G50U G67A A91C C114U the value was at most -4.2; for A22C A24G A28C A49U C85G, at most -4.2.

Regarding A23C G80C G84A C93A U144A, the “polymerase ribozyme fitness (log ratio)” value was at most -4.2. For the variant A22C G42A C54A C85U, the “polymerase ribozyme fitness (log ratio)” value was at most -4.2. In the case of A22G U45A U55A U56G A107U C125A U148G, the “polymerase ribozyme fitness (log ratio)” value is at most -4.2. The result for A23G C43U G84A G141U reads at most -4.2.

Take A21C A37U C43U C99U G126A G141A: the “polymerase ribozyme fitness (log ratio)” value is at most -4.2. On to A23G U78G A89U A91U C93G U102C A115G G126U G141C A142U, for which the “polymerase ribozyme fitness (log ratio)” value is at most -4.2.

On to A20U G70C C75A, for which the “polymerase ribozyme fitness (log ratio)” value is at most -4.2. On to A20U A28U A49C U55A C72U U135C, for which the “polymerase ribozyme fitness (log ratio)” value was at most -4.2. Regarding A21G C43A C76U G92U, the “polymerase ribozyme fitness (log ratio)” value was at most -4.2. As to A20U G48C A52U G58U G62A G83A A107U, the “polymerase ribozyme fitness (log ratio)” value was at most -4.2.

In the case of A20U C87G, the “polymerase ribozyme fitness (log ratio)” value is at most -4.2.

As for A23U A30U C32A A40U U61C G70A G80A G92A U101C C114U, the “polymerase ribozyme fitness (log ratio)” value was at most -4.2. Take A22G G83C U111G A120U: the “polymerase ribozyme fitness (log ratio)” value was at most -4.2. Consider A22C U44A U61A C96G G141C, for which the “polymerase ribozyme fitness (log ratio)” value was at most -4.2.

Consider A21G A47U U82A C96U C99U A110G G128A, for which the “polymerase ribozyme fitness (log ratio)” value was at most -4.2.

Consider A21U U33A C76A U77G C103A A107G G141C, for which the “polymerase ribozyme fitness (log ratio)” value was at most -4.2.

Regarding A22C A24C G42C A52U U53A A121C, the “polymerase ribozyme fitness (log ratio)” value was at most -4.2. For A23G A52G U56C G80A G92U U130G the value was at most -4.2; for A21U U44A G71U A120U G141U U151G, at most -4.2.

Turning to A23U C27U A49U C75G U82G G92U A97U G117C C149U, the “polymerase ribozyme fitness (log ratio)” value was at most -4.2.

Regarding A22C C57A G62U C93U A97U A98G, the “polymerase ribozyme fitness (log ratio)” value was at most -4.2. Consider A23C A40G C54G C95G C123G G143A, for which the “polymerase ribozyme fitness (log ratio)” value is at most -4.2. As for A22U A52G C85A C93U G128C U145A, the “polymerase ribozyme fitness (log ratio)” value is at most -4.2.

A22U A49G G92A: the “polymerase ribozyme fitness (log ratio)” value was at most -4.2. For the variant A20U C27A C95U, the “polymerase ribozyme fitness (log ratio)” value is at most -4.2. A23G G25U G48A A73G C87G A89U C96A G136A: the “polymerase ribozyme fitness (log ratio)” value was at most -4.2. As to A22C U44G A52G U55A C96U, the “polymerase ribozyme fitness (log ratio)” value is at most -4.2.

Consider A22G C27G C43A C76G, for which the “polymerase ribozyme fitness (log ratio)” value was at most -4.2.

A23G A30G C54A G83U U101G U104A A106G: the “polymerase ribozyme fitness (log ratio)” value is at most -4.2. On to A21C C32A G50C C85U G88C C96U C108G, for which the “polymerase ribozyme fitness (log ratio)” value is at most -4.2. As for A23C A41G U55A G59C C85A A97U G140A, the “polymerase ribozyme fitness (log ratio)” value was at most -4.2.

Turning to A22U A39U A40U C51U C87U A122U, the “polymerase ribozyme fitness (log ratio)” value was at most -4.2. Take A20U U56G A60U C87A C125U: the “polymerase ribozyme fitness (log ratio)” value was at most -4.2. Consider A23G A37U C57A C79U G86A A107G U111C C132A G152C, for which the “polymerase ribozyme fitness (log ratio)” value was at most -4.2. With A21C C32G A37U A49G C57U C75G G84A A107C, the “polymerase ribozyme fitness (log ratio)” value was at most -4.2. For A22G A52U A66U the value was at most -4.2; for A21U A22U A28C U33G U145G, at most -4.2. Turning to A20U A49U A89G C95U C105A U146A, the “polymerase ribozyme fitness (log ratio)” value is at most -4.2. With A23G G25A C54U A64C C75A A97G C116A, the “polymerase ribozyme fitness (log ratio)” value is at most -4.2. As for A21U G58C G81A C85A G92A A106U, the “polymerase ribozyme fitness (log ratio)” value is at most -4.2. Turning to A22G C35A C43U G59U G83C U109G U135C, the “polymerase ribozyme fitness (log ratio)” value is at most -4.2. As for A20U A26U G84U, the “polymerase ribozyme fitness (log ratio)” value was at most -4.2. For A22G C76U C85A C87U G128C G140U the value was at most -4.2; for A21U A49C C87A A137G, at most -4.2.

Values taken from the RNAGym collection of RNA variant scans (doi:10.1073/pnas.2313332121).
